Experimental data reported in PubChem BioAssay AID463173 (ICCB-Longwood Screening Facility, Harvard Medical School, 2010).
Out of some 52,000 compounds screened, about 1,700 (3.3%) were called active. Cut-off read from the data, not from the text of the source: active = survival mostly below about 52% (no sharp cut-off); inactive = mostly above about 56%. This is one part of the list.

Each molecule was assayed on Wild type (assay: S. aureus survival, RN4220 and DeltatarO strains – OD600, teichoic acid synthesis inhibitors, primary screen (AID 463173)). Details: S. aureus RN4220 wild type/DeltatarO growth, OD600, 18 h, hits give low values, screened at 18.75 µg/mL (by protocol).
`COc1ccc(/C=C(\NC(=O)c2ccccc2)C(=O)N2CCOCC2)cc1` was tested, and the survival was inactive: 105%.
`COc1cccc(NC(=O)Cn2c(=O)n(-c3ccccc3)c(=O)c3c2c2cc(OC)ccc2n3C)c1` was tested, and the survival was inactive: 117%.
With `O=S(=O)(c1ccc(-c2cnc(C3CC3)o2)cc1)N1CCN(c2ccccc2)CC1` the survival was inactive: 65%.
`CC1=C(C(=O)OC2CCCC2)C(c2ccccc2C(F)(F)F)CC(=O)N1` (centres undefined) was tested, and the survival was inactive: 79%.
In the case of `Cc1ccc(OCC(=O)Nc2cccc(C(=O)OCc3cc(=O)n4c(C)csc4n3)c2)cc1`, the survival is reported as inactive: 69%.
`CCc1cccc(NC(=O)c2ccc3c(c2)c(C)c(C)n3Cc2ccc(F)cc2)c1` was tested, and the survival was inactive: 71%.
With `CCOc1ccccc1NC(=O)c1c(NC(=O)Cc2ccc(OC)cc2)sc2c1CCC2` the survival was inactive: 77%.
For `CC(=O)c1ccc(N2CCN(c3ncnc4c3cnn4-c3cc(Cl)ccc3C)CC2)cc1`, the survival was inactive: 124%.
In the case of `Cc1ccc(CNC(=O)CN2N=C(c3ccccc3)CCC2=O)cc1`, the survival is reported as inactive: 69%.
In the case of `CN1CCN(Cn2c(O)c(N=NC(=O)c3ccc(Br)cc3)c3cc(Br)ccc32)CC1`, the survival is reported as inactive: 109%.
For `Cc1ccccc1OCC(=O)OCc1cc(=O)n2nc(-c3cccs3)sc2n1`, the survival was inactive: 72%.
For `COc1ccccc1CNC(=O)c1nnn(CC(=O)Nc2c(C)cccc2C)c1N`, the survival was inactive: 90%.
In the case of `Cn1c(C(=O)Nc2ccc(OC(F)(F)F)cc2)cc2c(=O)n3ccccc3nc21`, the survival is reported as inactive: 89%.
For `Cc1cccc(NC(=O)CSc2nnc(CSc3nc(C)cc(C)n3)o2)c1`, the survival was inactive: 108%.
For `Cc1cc(NC(=O)C2CCCN(S(=O)(=O)c3cccc4nsnc34)C2)ccc1Br` (centres undefined), the survival was inactive: 82%.
For `Cc1cccc(N2CCN(C(=O)Nc3ccccc3F)CC2=O)c1C`, the survival was inactive: 95%.
With `O=C(Nc1cc(Cl)cc(Cl)c1)c1ccc(F)c(S(=O)(=O)N2CCN(c3ccccc3F)CC2)c1` the survival was inactive: 77%.
In the case of `CCOc1ccc(NC(=O)N2CCC(N3CCCCC3)CC2)cc1`, the survival is reported as inactive: 105%.
In the case of `Cc1cccc(CSc2nnc3[nH]c(=O)cc(-c4ccccc4)n23)c1`, the survival is reported as inactive: 80%.
`COc1cc(-c2nc3ccc(Cl)cn3c2Nc2ccc3c(c2)OCCO3)ccc1O` was tested, and the survival was inactive: 49%.
With `O=C(c1ccc2c(c1)N(Cc1ccc(Cl)cc1)C(=O)c1ccccc1S2(=O)=O)N1CCN(c2ccccn2)CC1` the survival was inactive: 96%.
With `Cc1ccc(NC(=O)COc2ccc3oc4c(c3c2)CCCC4)cc1C` the survival was inactive: 74%.
With `N#Cc1ccc(-c2ccc(OCC3CNC(=O)O3)cc2)cc1` (centres undefined) the survival was inactive: 121%.
`Cc1ccc(CN2COc3c(Cl)cc4c(-c5ccccc5)cc(=O)oc4c3C2)cc1` was tested, and the survival was inactive: 87%.
